Test [1] addresses Gal4p-DBD-FLASH, full-length wild-type FLASH fused to the Gal4p DNA-binding domain (pCIneo-GBD1-FLASH) (not stated (human or mouse cDNA cloned)) (UniProt Q9UKL3). Briefly: chromatin immunoprecipitation (ChIP-qPCR); HEK 293 reporter cell line with integrated Gal4p-responsive 5×GRE promoter; formaldehyde cross-linked; occupancy of 3×FLAG-PIAS1 on the promoter with or without the Gal4p-DBD fusion partner; NCOA5 intron as control.

The chains behind the UniProt entries cited, without tags or fusion partners. Where a name states a change or a piece, a line headed by the entry shows the natural chain unless it says otherwise. A line that says so, or that is headed by a name, gives the form on record, which may keep a tag or linker. Residues count along the entry.
UniProt Q9UKL3: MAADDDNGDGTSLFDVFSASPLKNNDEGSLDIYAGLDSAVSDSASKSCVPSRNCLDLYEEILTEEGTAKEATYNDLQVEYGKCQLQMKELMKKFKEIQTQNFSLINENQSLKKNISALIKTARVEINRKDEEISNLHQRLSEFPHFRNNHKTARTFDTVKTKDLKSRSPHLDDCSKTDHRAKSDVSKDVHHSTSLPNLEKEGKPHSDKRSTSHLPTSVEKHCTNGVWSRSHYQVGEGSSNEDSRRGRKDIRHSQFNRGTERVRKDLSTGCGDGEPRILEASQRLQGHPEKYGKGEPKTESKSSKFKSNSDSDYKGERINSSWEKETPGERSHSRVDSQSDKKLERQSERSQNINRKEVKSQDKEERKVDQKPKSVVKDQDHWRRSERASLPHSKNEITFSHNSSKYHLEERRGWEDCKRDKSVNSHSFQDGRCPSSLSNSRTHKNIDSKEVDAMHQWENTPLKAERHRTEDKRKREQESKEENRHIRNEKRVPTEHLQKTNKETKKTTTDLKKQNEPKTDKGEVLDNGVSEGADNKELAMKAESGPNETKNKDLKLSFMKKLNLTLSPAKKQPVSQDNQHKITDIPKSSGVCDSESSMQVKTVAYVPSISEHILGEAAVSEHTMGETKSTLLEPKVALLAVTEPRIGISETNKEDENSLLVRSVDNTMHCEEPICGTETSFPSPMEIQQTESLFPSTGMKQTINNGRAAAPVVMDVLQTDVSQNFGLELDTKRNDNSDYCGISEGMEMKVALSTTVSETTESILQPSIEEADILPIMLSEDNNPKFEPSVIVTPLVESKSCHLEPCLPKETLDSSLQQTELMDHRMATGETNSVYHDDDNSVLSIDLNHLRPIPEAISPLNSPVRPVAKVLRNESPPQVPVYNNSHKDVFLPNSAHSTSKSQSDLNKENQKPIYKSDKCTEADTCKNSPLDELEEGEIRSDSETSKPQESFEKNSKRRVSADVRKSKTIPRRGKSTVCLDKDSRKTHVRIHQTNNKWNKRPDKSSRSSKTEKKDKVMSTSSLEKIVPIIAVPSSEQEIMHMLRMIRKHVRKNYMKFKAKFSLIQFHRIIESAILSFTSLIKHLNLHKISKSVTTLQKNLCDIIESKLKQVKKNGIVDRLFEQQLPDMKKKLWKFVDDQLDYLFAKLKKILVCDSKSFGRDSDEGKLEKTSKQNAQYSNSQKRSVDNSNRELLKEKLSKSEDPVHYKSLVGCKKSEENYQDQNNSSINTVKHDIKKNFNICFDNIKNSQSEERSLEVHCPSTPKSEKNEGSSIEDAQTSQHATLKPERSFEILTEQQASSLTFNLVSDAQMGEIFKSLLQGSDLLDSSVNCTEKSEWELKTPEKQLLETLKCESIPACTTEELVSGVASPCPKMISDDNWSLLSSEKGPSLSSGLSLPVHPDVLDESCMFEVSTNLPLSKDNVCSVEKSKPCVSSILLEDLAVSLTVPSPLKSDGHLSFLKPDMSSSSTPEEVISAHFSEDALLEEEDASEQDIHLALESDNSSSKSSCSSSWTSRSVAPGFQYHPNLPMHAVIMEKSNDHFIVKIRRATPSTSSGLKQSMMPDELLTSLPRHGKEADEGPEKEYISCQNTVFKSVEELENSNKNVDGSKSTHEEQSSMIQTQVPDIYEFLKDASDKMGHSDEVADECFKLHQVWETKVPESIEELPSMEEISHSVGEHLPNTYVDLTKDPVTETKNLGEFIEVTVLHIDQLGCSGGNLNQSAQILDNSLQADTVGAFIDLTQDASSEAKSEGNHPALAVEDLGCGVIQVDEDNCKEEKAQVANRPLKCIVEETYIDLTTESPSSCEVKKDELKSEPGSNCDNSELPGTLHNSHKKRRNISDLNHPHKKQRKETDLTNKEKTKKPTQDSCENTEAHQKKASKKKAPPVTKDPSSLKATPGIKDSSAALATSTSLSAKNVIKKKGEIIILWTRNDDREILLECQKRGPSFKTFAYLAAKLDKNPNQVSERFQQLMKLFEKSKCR
Gal4p-DBD-FLASH-A (pDBT-FLASH-A), amino acids 1-304 of FLASH: residues 1-304 of Q9UKL3
GST-FLASH-D (pGEX-6p-2-FLASH-D), amino acid residues 1508-1982: residues 1508-1982 of Q9UKL3
GST-FLASH-D-KR (pGEX-6p-2-FLASH-D-KR), amino acid residues 1508-1982 with K1813R (Q9UKL3, form named): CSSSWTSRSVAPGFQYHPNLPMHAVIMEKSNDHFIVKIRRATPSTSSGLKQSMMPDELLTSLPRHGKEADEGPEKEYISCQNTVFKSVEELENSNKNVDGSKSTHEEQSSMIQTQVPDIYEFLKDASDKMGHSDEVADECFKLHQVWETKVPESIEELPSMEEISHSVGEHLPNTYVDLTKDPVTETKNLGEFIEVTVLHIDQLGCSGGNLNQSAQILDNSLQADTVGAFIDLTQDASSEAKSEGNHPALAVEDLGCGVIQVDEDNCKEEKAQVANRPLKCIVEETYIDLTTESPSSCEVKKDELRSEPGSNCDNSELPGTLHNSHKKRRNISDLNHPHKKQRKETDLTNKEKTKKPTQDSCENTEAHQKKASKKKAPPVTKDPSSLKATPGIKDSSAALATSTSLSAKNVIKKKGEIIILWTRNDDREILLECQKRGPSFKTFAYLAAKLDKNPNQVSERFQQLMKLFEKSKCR
UniProt P10242: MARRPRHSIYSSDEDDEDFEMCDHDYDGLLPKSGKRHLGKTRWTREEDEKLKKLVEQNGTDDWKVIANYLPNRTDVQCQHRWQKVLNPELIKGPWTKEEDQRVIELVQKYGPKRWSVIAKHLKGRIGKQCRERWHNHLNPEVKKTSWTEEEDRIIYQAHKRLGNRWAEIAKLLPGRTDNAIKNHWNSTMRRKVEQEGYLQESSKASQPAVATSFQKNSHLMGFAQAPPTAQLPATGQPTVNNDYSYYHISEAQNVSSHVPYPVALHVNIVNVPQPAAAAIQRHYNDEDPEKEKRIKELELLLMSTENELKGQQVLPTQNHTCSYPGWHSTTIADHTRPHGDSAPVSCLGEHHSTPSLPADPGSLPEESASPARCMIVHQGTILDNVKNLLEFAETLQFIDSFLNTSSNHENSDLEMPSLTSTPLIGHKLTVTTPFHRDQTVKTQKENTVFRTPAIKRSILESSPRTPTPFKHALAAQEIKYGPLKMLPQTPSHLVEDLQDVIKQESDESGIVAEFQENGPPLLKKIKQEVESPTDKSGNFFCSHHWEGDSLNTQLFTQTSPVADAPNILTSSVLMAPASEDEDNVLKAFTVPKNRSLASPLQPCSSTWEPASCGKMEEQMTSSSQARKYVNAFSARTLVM
Gal4p-DBD-c-Myb[233-640]-HA (pCIneoB-GBD2-hcM[233-640]-HA), c-Myb lacking its own DBD in fusion with Gal4p-DBD: residues 233-640 of P10242
UniProt O75925: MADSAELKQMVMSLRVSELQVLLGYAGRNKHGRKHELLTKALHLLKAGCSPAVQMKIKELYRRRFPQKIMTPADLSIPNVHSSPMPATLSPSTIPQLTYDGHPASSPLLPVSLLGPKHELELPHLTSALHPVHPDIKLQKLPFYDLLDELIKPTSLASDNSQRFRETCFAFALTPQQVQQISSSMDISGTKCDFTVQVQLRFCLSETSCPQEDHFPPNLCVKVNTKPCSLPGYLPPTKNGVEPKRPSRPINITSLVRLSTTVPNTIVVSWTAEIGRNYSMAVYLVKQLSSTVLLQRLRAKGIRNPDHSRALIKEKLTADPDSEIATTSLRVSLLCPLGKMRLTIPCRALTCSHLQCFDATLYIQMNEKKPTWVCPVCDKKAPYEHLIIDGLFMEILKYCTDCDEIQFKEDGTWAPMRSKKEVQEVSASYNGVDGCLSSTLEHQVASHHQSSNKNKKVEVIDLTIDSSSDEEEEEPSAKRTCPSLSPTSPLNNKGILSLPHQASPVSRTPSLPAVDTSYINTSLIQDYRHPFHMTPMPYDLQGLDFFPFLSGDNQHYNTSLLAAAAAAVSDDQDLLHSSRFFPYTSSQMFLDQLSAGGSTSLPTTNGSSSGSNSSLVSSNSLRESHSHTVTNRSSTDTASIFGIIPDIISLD

Test [2] deals with Gal4p-DBD-c-Myb[233-640]-HA (pCIneoB-GBD2-hcM[233-640]-HA), c-Myb lacking its own DBD in fusion with Gal4p-DBD (human) (UniProt P10242). The description is as above.
For test [3], the target named is GST-FLASH-D (pGEX-6p-2-FLASH-D), amino acid residues 1508-1982 (human) (UniProt Q9UKL3). Briefly: pull-down; GST fusion proteins from E. coli incubated with lysate of transfected COS-1 cells; PIAS1 detected by anti-FLAG immunoblot; only the target purified.
Test [4] addresses GST-FLASH-A (pGEX-6p-2-FLASH-A), amino acid residues 1-304 (human) (UniProt Q9UKL3). The description is as above.
Test [5] concerns the target GST-FLASH-D-KR (pGEX-6p-2-FLASH-D-KR), amino acid residues 1508-1982 with K1813R (human) (UniProt Q9UKL3). The description is as above.
For test [6], the target named is Gal4p-DBD-FLASH-D (pDBT-FLASH-D), amino acids 1508-1982 of human FLASH (human) (UniProt Q9UKL3). Kind of test: two-hybrid; directed mating: bait (pDBT) in AH109, prey (pGADT7) in Y187; activation of the HIS3 reporter (SC-L-W-H); each mating in duplicate.
The target of test [7] is Gal4p-DBD-c-Myb, full-length human c-Myb (pDBT-c-Myb) (human) (UniProt P10242). The test is described as above.
Test [8] concerns the target Gal4p-DBD-FLASH-D (pDBT-FLASH-D), amino acids 1508-1982 of human FLASH (human) (UniProt Q9UKL3). Kind of test: two-hybrid; library screening: pDBT-FLASH-D as bait against a human bone marrow cDNA library (Clontech); positive clones validated by HIS3, ADE2 and LacZ reporters.
In test [9] the target is Gal4p-DBD-FLASH-A (pDBT-FLASH-A), amino acids 1-304 of FLASH (human) (UniProt Q9UKL3). Briefly: two-hybrid; directed mating: bait (pDBT) in AH109, prey (pGADT7) in Y187; activation of the HIS3 reporter (SC-L-W-H); each mating in duplicate.

No constants are given. Whether binding was seen depends on the method and setting. For some of these results: In cells and extracts the contact can be indirect. Some binding calls cover weakened binding; strength is not graded here.

Regarding “3×FLAG-PIAS1, full-length human PIAS1 wild-type (pCIneoB-3×FLAG-PIAS1) (from UniProt O75925 1-651)”, the binding result in test [1], in [2], in [3], in test [4] and in test [5] was “binds” in each case.

Regarding “Gal4p-AD-PIAS1[1-501] (pGADT7-PIAS1[1-501]) (from UniProt O75925 1-501) (domain or fragment)”, the binding entry in [6] is “binds”; in test [7], “no binding”; in test [8], “binds”.

For “Gal4p-AD-PIAS1 full length (pGADT7-PIAS1) (from UniProt O75925 1-651)”, the binding entry in test [6], in test [9] and in test [7] was “binds” each time.

“3×FLAG-PIAS1 RING finger mutant (C346S/C351S/H353A/C356S) (pCIneoB-3×FLAG-PIAS1 RING finger mutant) (from UniProt O75925 1-651)”: the binding entry in test [3] and in test [5] was “binds” in each case.

Values taken from publication PMC3050860.
